target: T1, Hmm-hTFRC (REGN2431), monomeric human transferrin receptor ectodomain with N-terminal hexahistidine-myc-myc … (human, UniProt P02786); experiment: blocking ELISA, supernatant; Hmm-hTFRC binding to immobilized human holo-Tf
T1 construct: also called hmm.hTfR(C89-F763); His-myc-myc-hTFRC ecto
Method: In the blocking assay, the anti-human Transferrin goat IgG polyclonal antibody (anti-hTf pAb) was passively absorbed at a concentration of 2 micrograms/mL in PBS on a 96-well microtiter plate overnight at 4° C. […] To the same plate, human holo-Tf was then added at a concentration of 1 micrograms/mL in PBS+0.5% BSA for 2 hours at room temperature. […] After a 1-hour incubation, the mixtures were transferred to the human holo-Tf microtiter plates. […] The plates were developed using TMB substrate solution according to the manufacturer's recommended procedure and absorbance at 450 nm was measured on a Victor™ Multilabel Plate Reader.
The ability of the anti-TfR antibody to block human TFRC binding to human holo-Tf was evaluated using an ELISA-based blocking assay.

T1 sequence (P02786 other isoform, or with tags, fused parts or gaps): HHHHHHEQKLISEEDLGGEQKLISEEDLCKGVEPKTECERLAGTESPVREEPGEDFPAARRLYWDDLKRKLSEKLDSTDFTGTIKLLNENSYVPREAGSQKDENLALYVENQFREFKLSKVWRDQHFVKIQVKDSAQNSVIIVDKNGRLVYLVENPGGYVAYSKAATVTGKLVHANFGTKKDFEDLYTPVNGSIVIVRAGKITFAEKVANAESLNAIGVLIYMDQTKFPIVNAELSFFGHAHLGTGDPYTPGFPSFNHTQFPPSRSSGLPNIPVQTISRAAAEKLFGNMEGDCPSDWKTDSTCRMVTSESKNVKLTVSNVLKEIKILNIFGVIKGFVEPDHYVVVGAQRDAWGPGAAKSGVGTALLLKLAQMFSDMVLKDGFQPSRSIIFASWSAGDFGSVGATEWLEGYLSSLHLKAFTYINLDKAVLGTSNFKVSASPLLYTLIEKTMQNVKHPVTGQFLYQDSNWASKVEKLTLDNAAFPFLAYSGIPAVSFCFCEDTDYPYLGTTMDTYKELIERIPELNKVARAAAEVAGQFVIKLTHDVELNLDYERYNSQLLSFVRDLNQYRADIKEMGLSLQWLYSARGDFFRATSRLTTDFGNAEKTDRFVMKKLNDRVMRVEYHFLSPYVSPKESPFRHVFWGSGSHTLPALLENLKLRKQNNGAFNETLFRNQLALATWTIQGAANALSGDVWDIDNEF

Binder | % Blocking [%]
12816B scFv (VK-VH) (scFv, CHO supernatant; Vk-3xG4S-Vh) scFv: [about 120 residues left out here]GGGGSGGGGSGGGGSQVQLVESGGGLVKPGGSLRLSCAASGFTFSDYYMNWIRQAPGKGLEWVSYISSSGTTIYYADSVKGRFTISRDNAKKSLYLEMNSLRAEDTAVYYCAREGYGNDYYYYGIDVWGQGTTVTVSS | 14
12816B scFv (VH-VK) (scFv) QVQLVESGGGLVKPGGSLRLSCAASGFTFSDYYMNWIRQAPGKGLEWVSYISSSGTTIYYADSVKGRFTISRDNAKKSLYLEMNSLRAEDTAVYYCAREGYGNDYYYYGIDVWGQGTTVTVSS[about 120 residues left out here] | 16
12833B scFv (VK-VH) (scFv, CHO supernatant; Vk-3xG4S-Vh) scFv: [about 100 residues left out here]TRLEIKGGGGSGGGGSGGGGSQVQLVESGGGVVQPGRSLRLSCAASGFTFSSFGMHWVRQAPGKGLEWVIFISYDGSDKYYADSVKGRFAISRDSSKNTLYLQMNSLRAEDTAVYYCAKENGILTDSYGMDVWGQGTTVTVSS | 40
12833B scFv (VH-VK) (scFv) QVQLVESGGGVVQPGRSLRLSCAASGFTFSSFGMHWVRQAPGKGLEWVIFISYDGSDKYYADSVKGRFAISRDSSKNTLYLQMNSLRAEDTAVYYCAKENGILTDSYGMDVWGQGTTVTVSS[about 100 residues left out here] | 22
12834B scFv (VK-VH) (scFv, CHO supernatant; Vk-3xG4S-Vh) scFv: [about 100 residues left out here]TRLEIKGGGGSGGGGSGGGGSQVQLVQSGAEVKKPGASVKVSCKASGYTFTSYGISWVRQAPGQGLEWMGWISVYHGNTNYAQKFQGRVTMTTDTSTSTAYMELRSLRSDDTAVYYCAREGYYDFWSGYYPFDYWGQGTLVTVSS | 11
12834B scFv (VH-VK) (scFv) QVQLVQSGAEVKKPGASVKVSCKASGYTFTSYGISWVRQAPGQGLEWMGWISVYHGNTNYAQKFQGRVTMTTDTSTSTAYMELRSLRSDDTAVYYCAREGYYDFWSGYYPFDYWGQGTLVTVSS[about 100 residues left out here] | -3
12835B scFv (VK-VH) (scFv, CHO supernatant; Vk-3xG4S-Vh) scFv: [about 100 residues left out here]TRLEIKGGGGSGGGGSGGGGSEVQLVESGGGLIQPGGSLRLSCEASGFTFRNYEMNWVRQAPGKGLEWVSYISSSGNMKDYAESVKGRFTISRDNVKNSLQLQMNSLRVEDTAVYYCARDEFPYGMDVWGQGTTVTVSS | 37
12839B scFv (VK-VH) (scFv, CHO supernatant; Vk-3xG4S-Vh) scFv: [about 100 residues left out here]TRLEIKGGGGSGGGGSGGGGSQVQLVESGGGVVQPGRSLRLSCAASGFPFSNYVMYWVRQAPGKGLEWVALIFFDGKKNYHADSVKGRFTITRDNSKNMLYLQMNSLRPEDAAVYYCAKIHCPNGVCYKGYYGMDVWGQGTTVTVSS | 6
12841B scFv (VK-VH) (scFv, CHO supernatant; Vk-3xG4S-Vh) scFv: [about 100 residues left out here]TRLEIKGGGGSGGGGSGGGGSEVQLVESGGGLVQPGGSLRLSCAASGFTFSNYWMNWVRQAPGKGLEWVANIKEDGGKKLYVDSVKGRFTISRDNAKNSLFLQMNSLRAEDTAVYYCAREDTTLVVDYYYYGMDVWGQGTTVTVSS | 1
12843B scFv (VK-VH) (scFv, CHO supernatant; Vk-3xG4S-Vh) scFv: [about 100 residues left out here]TRLEIKGGGGSGGGGSGGGGSEVQLVESGGGLVQPGGSLRLSCAASGFTFNIFEMNWVRQAPGKGLEWISYISSRGTTTYYADSVRGRFTISRDNAKNSLYLQMNSLRAEDTAVYYCARDYEATIPFDFWGQGTLVTVSS | 8
12844B scFv (VK-VH) (scFv, CHO supernatant; Vk-3xG4S-Vh) scFv: [about 100 residues left out here]TRLEIKGGGGSGGGGSGGGGSEVQLVESGGSVVRPGGSLRLSCEASGFTFDDYGMSWVRQDPGKGLEWVSGINWNGDRTNYADSVKGRFIISRDNAKNSVYLQMNSLRAEDSALYHCARDQGLGVAATLDYWGQGTLVTVSS | 10
12844B scFv (VH-VK) (scFv) EVQLVESGGSVVRPGGSLRLSCEASGFTFDDYGMSWVRQDPGKGLEWVSGINWNGDRTNYADSVKGRFIISRDNAKNSVYLQMNSLRAEDSALYHCARDQGLGVAATLDYWGQGTLVTVSS[about 100 residues left out here] | 12
12845B scFv (VK-VH) (scFv, CHO supernatant; Vk-3xG4S-Vh) scFv: [about 100 residues left out here]TRLEIKGGGGSGGGGSGGGGSEVQLVESGGGLVQPGGSLRLSCAASGFTVSNYEMNWVRQAPGKGLEWVSYISSSTSNIYYADSVKGRFTISRDNAENSLYLQMNSLRVEDTAVYYCVRDGIVVVPVGRGYYYYGLDVWGQGTTVTVSS | 3
12847B scFv (VK-VH) (scFv, CHO supernatant; Vk-3xG4S-Vh) scFv: [about 100 residues left out here]TRLEIKGGGGSGGGGSGGGGSEVQLVESGGGLVQPGRSLRLSCAASGFTFDDYAMNWVRQAPGKGLEWVSGISWSSGSMDYADSVKGRFTISRDNAKNSLYLQMNSLRTEDTALYYCAKAREVGDYYGMDVWGQGTTVTVSS | 13
12847B scFv (VH-VK) (scFv, CHO supernatant) scFv: EVQLVESGGGLVQPGRSLRLSCAASGFTFDDYAMNWVRQAPGKGLEWVSGISWSSGSMDYADSVKGRFTISRDNAKNSLYLQMNSLRTEDTALYYCAKAREVGDYYGMDVWGQGTTVTVSSGGGGSGGGGSGGGGS[about 100 residues left out here] | 11
69261 scFv (VK-VH) (scFv, CHO supernatant; Vk-3xG4S-Vh) scFv: [about 120 residues left out here]GGGGSGGGGSGGGGSQVQLVESGGGLVKPGGSLRLSCAASGFTFSVYYMNWIRQAPGKGLEWVSYISSSGSTIYYADSVKGRFTISRDNAKNSLYLQMNSLRAEDTAVYYCGREGYSGTYSYYGMDVWGQGTTVTVSS | 16
69261 scFv (VH-VK) (scFv) QVQLVESGGGLVKPGGSLRLSCAASGFTFSVYYMNWIRQAPGKGLEWVSYISSSGSTIYYADSVKGRFTISRDNAKNSLYLQMNSLRAEDTAVYYCGREGYSGTYSYYGMDVWGQGTTVTVSS[about 120 residues left out here] | 19
69323 scFv (VK-VH) (scFv, CHO supernatant; Vk-3xG4S-Vh) scFv: [about 100 residues left out here]GGGGSGGGGSGGGGSEVQLVESGGGLVQPGRSLRLSCAASGFTFDDYAMHWVRQAPGKGLEWVSGISWNSGYIGYADSVKGRFTISRDNAENSLHLQMNSLRAEDTALYYCARGGSTLVRGVKGGYYGMDVWGQGTTVTVSS | 17
